According to patent publication US10111437B2, “Substituted guanidines as fungicides” (Nippon Soda Co., Ltd., priority 2015, dated 2018):

What follows are compounds tested on wheat powdery mildew fungus (Blumeria graminis f. sp. tritici) (assay: Wheat powdery mildew control test (foliar spray on wheat seedlings)). Conditions: in Triticum aestivum, 168 h, read-out: control value.
In the case of N=C(N)c1ccc(OCCCN2CCN(CCCOc3ccc(C(=N)N)cc3)C2=N)cc1 [compound 2, 4-[3-[3-[3-(4-carbamimidoylphenoxy)propyl]-2-imino-imidazolidin-1-yl]propoxy]benzamidine], the pest or weed control at 125 ppm is reported as no less than 75%.
N=C(N)c1ccc(OCCCCN2CCN(CCCCOc3ccc(C(=N)N)cc3)C2=N)cc1 [compound 6, 4-[4-[3-[4-(4-carbamimidoylphenoxy)butyl]-2-imino-imidazolidin-1-yl]butoxy]benzamidine] showed a pest or weed control at 125 ppm of no less than 75%.
Compound N=C(N)NCCCCCCCN1CCN(CCCCCCCNC(=N)N)C1=N [compound 8, 1-[7-[3-(7-guanidinoheptyl)-2-imino-imidazolidin-1-yl]heptyl]guanidine] has a pest or weed control at 125 ppm of no less than 75%.
Work on N=C(NCCCCOc1ccc(C(=N)N)cc1)NCCCCOc1ccc(C(=N)N)cc1 [compound 10, 4-[4-[[N-[4-(4-carbamimidoylphenoxy)butyl]carbamimidoyl]amino]butoxy]benzamidine] yielded a pest or weed control at 125 ppm of no less than 75%.
In the case of N=C(N)NCCCCCCCNC(=N)NCCCCCCCNC(=N)N [compound 12, 1,3-bis(7-guanidinoheptyl)guanidine], the pest or weed control at 125 ppm is reported as no less than 75%.
N=C(NCCCOc1ccc(C(=N)N)cn1)NCCCOc1ccc(C(=N)N)cn1 [compound 17, 6,6′-((((iminomethylene)bis(azanediyl))bis (propane-3,1-diyl))bis(oxy))dinicotinimidamide] was tested, and the pest or weed control at 125 ppm was no less than 75%.
N=C(NCCCC#Cc1ccc(C(=N)N)cc1)NCCCC#Cc1ccc(C(=N)N)cc1 [compound 22, 4-[5-[[N-[5-(4-carbamimidoylphenyl)pent-4-ynyl]carbamimidoyl]amino]pent-1-ynyl]benzamidine] showed a pest or weed control at 125 ppm of no less than 75%.
N=C(N)NCCCCCCCn1ccn(CCCOc2ccc(C(=N)N)cc2)c1=N [compound 25, 4-[3-[3-(7-guanidinoheptyl)-2-imino-imidazol-1-yl]propoxy]benzamidine] gave a pest or weed control at 125 ppm of no less than 75%.
N=C(N)NCCCCCCCNC(=N)NCCCOc1ccc(C(=N)N)cc1 [compound 29, 4-[3-[[N-(7-guanidinoheptyl)carbamimidoyl]amino]propoxy]benzamidine] gave a pest or weed control at 125 ppm of no less than 75%.
Compound N=C(N)NCCCCCCCNC(=N)NCCCCOc1ccc(C(=N)N)cc1 [compound 30, 4-[4-[[N-(7-guanidinoheptyl)carbamimidoyl]amino]butoxy]benzamidine] has a pest or weed control at 125 ppm of no less than 75%.
With N=C(N)NCCCCCCCNC(=N)NCCCCOc1ccc(C(=N)N)cn1 [compound 32, 6-(4-(3-(7-guanidinoheptyl)guanidino)butoxy)nicotinimidamide] the pest or weed control at 125 ppm was no less than 75%.
Compound N=C(N)NCCCCCCCNC(=N)NCCCc1cc2cc(C(=N)N)ccc2o1 [compound 34, 2-(3-(3-(7-guanidinoheptyl)guanidino)propyl)benzofuran-5-carboximidamide] has a pest or weed control at 125 ppm of no less than 75%.
In the case of N=C(N)c1ccc(OCCCCn2ccn(CCCCOc3ccc(C(=N)N)cc3)c2=N)cc1 [compound 36, 4-[4-[3-[4-(4-carbamimidoylphenoxy)butyl]-2-imino-imidazol-1-yl]butoxy]benzamidine], the pest or weed control at 125 ppm is reported as no less than 75%.
In the case of N=C(N)c1ccc(OCCCCn2ccn(CCCOc3ccc(C(=N)N)cc3)c2=N)cc1 [compound 40, 4-[4-[3-[3-(4-carbamimidoylphenoxy)propyl]-2-imino-imidazol-1-yl]butoxy]benzamidine], the pest or weed control at 125 ppm is reported as no less than 75%.
For N=C(NCCCOc1ccc(C(=N)N)cc1)NCCCOc1ccc(C(=N)N)cc1 [compound 42, 4-[3-[[N-[3-(4-carbamimidoylphenoxy)propyl]carbamimidoyl]amino]propoxy]benzamidine], the pest or weed control at 125 ppm was no less than 75%.
Work on N=C(N)NCCCCCCCNC(=N)NCCCOc1ccc(C(=N)N)nn1 [compound 44, 6-(3-(3-(7-guanidinoheptyl)guanidino)propoxy) pyridazine-3-carboxamidine] yielded a pest or weed control at 125 ppm of no less than 75%.
N=C(N)c1ccc(OCCCCn2ccn(CCCCOc3ccc(C(=N)N)cn3)c2=NC(=O)C(F)(F)F)nc1 [compound 46, N-(1,3-bis(4-((5-carbamimidoylpyridin-2-yl)oxy)butyl)-1,3-dihydro-2H-imidazol-2-ylidene)-2,2,2-trifluoroacetamide] gave a pest or weed control at 125 ppm of no less than 75%.
With N=C(N)NCCCCCCCNC(=N)NCCCC#Cc1nc(C(=N)N)cs1 [compound 50, 2-[5-[[N-(7-guanidinoheptyl)carbamimidoyl]amino]pent-1-ynyl]thiazole-4-carboxamidine] the pest or weed control at 125 ppm was no less than 75%.
N=C(N)NCCCCCCCn1ccn(CCCCOc2ccc(C(=N)N)cc2)c1=N [compound 52, 4-[4-[3-(7-guanidinoheptyl)-2-imino-imidazol-1-yl]butoxy]benzamidine] was tested, and the pest or weed control at 125 ppm was no less than 75%.
CN=C(NCCCOc1ccc(C(=N)N)cc1)NCCCOc1ccc(C(=N)N)cc1 [compound 57, 4-[3-[[N-[3-(4-carbamimidoylphenoxy)propyl]-N′-methyl-carbamimidoyl]amino]propoxy]benzamidine] gave a pest or weed control at 125 ppm of no less than 75%.
In the case of N=C(N)NCCCCCNC(=N)NCCCCOc1ccc(C(=N)N)cc1 [compound 59], the pest or weed control at 125 ppm is reported as no less than 75%.
N=C(N)NCCCCCCCCNC(=N)NCCCCOc1ccc(C(=N)N)cn1 [compound 61, 6-[4-[[N-(8-guanidinooctyl)carbamimidoyl]amino]butoxy]pyridine-3-carboxamidine] showed a pest or weed control at 125 ppm of no less than 75%.
N=C(N)c1ccc(OCCCNC(=Nc2ccccc2)NCCCOc2ccc(C(=N)N)cc2)cc1 [compound 63, 4-[3-[[N-[3-(4-carbamimidoylphenoxy)propyl]-N′-phenyl-carbamimidoyl]amino]propoxy]benzamidine] was tested, and the pest or weed control at 125 ppm was no less than 75%.
With N=C(NCCCc1ccc(C(=N)N)cc1)NCCCc1ccc(C(=N)N)cc1 [compound 65, 4-[3-[[N-[3-(4-carbamimidoylphenyl)propyl]carbamimidoyl]amino]propyl]benzamidine] the pest or weed control at 125 ppm was no less than 75%.
CN(CCCOc1ccc(C(=N)N)cc1)C(=N)NCCCOc1ccc(C(=N)N)cc1 [compound 72] was tested, and the pest or weed control at 125 ppm was no less than 75%.
N=C(NCCCOc1ccc(C(=N)N)c(F)c1)NCCCOc1ccc(C(=N)N)c(F)c1 [compound 82] gave a pest or weed control at 125 ppm of no less than 75%.
N=C(N)c1ccc(OCCCn2ccn(CCCOc3ccc(C(=N)N)cc3)c2=N)cc1 [compound 89] showed a pest or weed control at 125 ppm of no less than 75%.
N=C(N)c1ccc(OCCCCCn2ccn(CCOc3ccc(C(=N)N)cc3)c2=N)cc1 [compound 93] gave a pest or weed control at 125 ppm of no less than 75%.
N=C(N)c1ccc(OCCCn2ccn(CCCOc3ccc(C(=N)N)cc3Cl)c2=N)c(Cl)c1 [compound 99] gave a pest or weed control at 125 ppm of no less than 75%.
CNCCNC(=N)c1ccc(OCCCn2ccn(CCCOc3ccc(C(=N)N)cc3)c2=N)cc1 [compound 101] was tested, and the pest or weed control at 125 ppm was no less than 75%.
Work on N=C(N)c1ccc(OCCCn2ccn(CCCOc3ccc(C(=N)N)c(F)c3)c2=N)cc1F [compound 103] yielded a pest or weed control at 125 ppm of no less than 75%.
Cc1c(C)n(CCCCOc2ccc(C(=N)N)cc2)c(=N)n1CCCCOc1ccc(C(=N)N)cc1 [compound 105] gave a pest or weed control at 125 ppm of no less than 75%.
Cc1cn(CCCCOc2ccc(C(=N)N)cc2)c(=N)n1CCCCOc1ccc(C(=N)N)cc1 [compound 107] was tested, and the pest or weed control at 125 ppm was no less than 75%.
Work on Cc1c(C)n(CCCOc2ccc(C(=N)N)cc2)c(=N)n1CCCOc1ccc(C(=N)N)cc1 [compound 109] yielded a pest or weed control at 125 ppm of no less than 75%.
For N=C(N)NCCCCCCCCNC(=N)NCCCOc1ccc(C(=N)N)cc1Cl [compound 112], the pest or weed control at 125 ppm was no less than 75%.
